Some of the results follow.
Columns and labels:
[1] = test system: HSkMC (human skeletal muscle cells); experiment: cytotoxicity call (relative viability < 0.9); conditions: 10 µM
[2] = test system: HepG2; experiment: cytotoxicity call (relative viability < 0.9); conditions: 10 µM
[3] = test system: S. aureus RN4220; experiment: growth inhibition call (relative growth <= 0.2); conditions: 50 µM

CC1=NN(c2ccccc2)C(=O)C1
inactive: cytotoxicity call [1] | cytotoxicity call [2] | growth inhibition call [3]

C[C@@H]1CN([C@H](C)CO)C(=O)Cc2cc(NC(=O)CCCCCC(=O)Nc3ccccc3N)ccc2O[C@@H]1CN(C)C(=O)Nc1ccccc1
inactive: cytotoxicity call [1] | cytotoxicity call [2] | growth inhibition call [3]

C[C@H](CO)N1C[C@H](C)[C@H](CN(C)C(=O)c2cnccn2)Oc2cc(Br)ccc2S1(=O)=O
inactive: cytotoxicity call [1] | cytotoxicity call [2] | growth inhibition call [3]

CN[C@@H]1[C@H](O[C@H]2[C@H](O[C@H]3[C@H](O)[C@@H](O)[C@H](NC(=N)N)[C@@H](O)[C@@H]3NC(=N)N)O[C@@H](C)[C@]2(O)C=O)O[C@@H](CO)[C@H](O)[C@H]1O
inactive: cytotoxicity call [1] | cytotoxicity call [2] | growth inhibition call [3]

C[C@@H]1CCCCO[C@H](CN(C)C)[C@H](C)CN([C@H](C)CO)C(=O)c2cc(NC(=O)CCCN(C)C)ccc2O1
inactive: cytotoxicity call [1] | cytotoxicity call [2] | growth inhibition call [3]

Cc1ccc(S[C@]2(C(=O)NCC(F)(F)F)CC(=O)N(Cc3cc(C(F)(F)F)cc(C(F)(F)F)c3)[C@@H]2c2ccc(CO)cc2I)cc1
inactive: cytotoxicity call [1] | cytotoxicity call [2] | growth inhibition call [3]

C[C@@H]1CN([C@@H](C)CO)C(=O)c2cc(NC(=O)Nc3cccc4ccccc34)ccc2O[C@@H](C)CCCCO[C@@H]1CN(C)S(=O)(=O)c1ccccc1
inactive: cytotoxicity call [1] | cytotoxicity call [2] | growth inhibition call [3]

COCC(=O)N1[C@@H]2c3ccc(C4=CCCCC4)c(=O)n3C[C@@H]2[C@@H](CO)[C@@H]1C(=O)N1CCOCC1
inactive: cytotoxicity call [1] | cytotoxicity call [2] | growth inhibition call [3]

CCCNC(=O)N[C@H]1C=C[C@@H](CC(=O)N2CCN(C)CC2)O[C@@H]1CO
inactive: cytotoxicity call [1] | cytotoxicity call [2] | growth inhibition call [3]
